Results on 26 compounds are retold here after PubChem BioAssay AID485344 (National Center for Advancing Translational Sciences (NCATS), 2010).

The campaign covered roughly 340,000 compounds. About 6,900 (2%) were called active. This is a selection; strong and weak results do not stand in their true shares. Entries without a call were filed so in the source.

In general, inhibition refers to the drop in the measured response relative to a control, in per cent.

UniProt P14416, sequence (P14416 whole entry, looked up): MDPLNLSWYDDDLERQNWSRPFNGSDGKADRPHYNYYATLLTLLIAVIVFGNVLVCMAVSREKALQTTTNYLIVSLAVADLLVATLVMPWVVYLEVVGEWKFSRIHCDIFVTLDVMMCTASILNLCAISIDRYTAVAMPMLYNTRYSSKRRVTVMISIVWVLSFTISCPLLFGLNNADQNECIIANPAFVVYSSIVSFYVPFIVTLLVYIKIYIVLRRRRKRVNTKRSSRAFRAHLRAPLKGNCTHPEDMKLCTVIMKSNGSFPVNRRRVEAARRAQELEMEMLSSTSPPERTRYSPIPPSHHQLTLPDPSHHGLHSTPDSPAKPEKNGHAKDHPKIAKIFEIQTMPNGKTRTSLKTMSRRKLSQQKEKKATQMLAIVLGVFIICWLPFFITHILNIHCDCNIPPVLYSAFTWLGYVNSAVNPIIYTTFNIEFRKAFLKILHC

The test has as its target D(2) dopamine receptor (Homo sapiens) (UniProt P14416). The test is described as follows: HTS Assay for Allosteric Antagonists of the Human D2 Dopamine Receptor: Primary Screen for Antagonists. Further: 0% is about no effect. The note with it: HEK293 TREx D2 cells, calcium flux, dopamine EC80; at 10 µM; stronger effect = higher value. The essentials:
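Read-out: kinetic calcium fluorescence (1 cycle/s) in inducible HEK293 T-REx D2 cells after an EC80 dopamine addition that followed 180 s compound preincubation. Loss of the dopamine response indicates antagonism.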
For `CCN1CCN(c2oc(-c3ccc(COc4ccccc4C)o3)nc2C#N)CC1`, the inhibition was -22.4%.

As to `Cc1noc(C)c1S(=O)(=O)N(CC(=O)Nc1ccc(F)cc1F)c1ccc(C(C)C)cc1`, the inhibition was -4.59%.

In the case of `CCCNC(=O)c1ccc2c(c1)nc1n2CCCCC1`, the inhibition is 0.957%.

Regarding `COc1cccc(CNC(=O)Cn2ncn3nc(-c4cccs4)cc3c2=O)c1`, the inhibition stood at 15.9%.

`COc1ccc(Cn2ccc3nc(C)c(C(=O)Nc4cccc(SC)c4)cc3c2=O)cc1`: the inhibition came out at 4.8%.

With `Oc1c(C(Nc2ccccn2)c2ccccc2F)ccc2cccnc12` (stereo unspecified), the inhibition was -10.4%.

Turning to `O=C(CSc1nc(=O)n(Cc2ccccn2)c2c1CCC2)Nc1ccccc1`, the inhibition is -2.65%.

As to `CSc1ccccc1NC(=O)CCS(=O)(=O)c1nc(-c2ccc3c(c2)OCO3)cc(C(F)(F)F)n1`, the inhibition is 15.3%.

As to `CC(C)(C)OC(=O)N1CCC(c2c(C(=O)NC3CCCCC3)cnn2-c2ccc(F)cc2F)CC1`, the inhibition was -4.03%.

For `Cc1ccc(S(=O)(=O)C(CNS(=O)(=O)c2cc(F)ccc2F)c2cccs2)cc1` (stereo unspecified), the inhibition was determined as 10.3%.

As for `COc1cc(CNC(=O)c2cnc(SC)nc2-c2ccccc2)cc(OC)c1OC`, the inhibition was -21.5%.

As to `Cc1cccc(S(=O)(=O)c2cn(Cc3ccccc3)c3cc(N4CCCCC4)c(F)cc3c2=O)c1`, the inhibition worked out at 1.23%.

Take `COC(=O)c1ccccc1NS(=O)(=O)c1cc2c(cc1C)N(C)CCO2`: the inhibition is 9.42%.

Consider `COc1ccccc1N1CCN(C(=O)CN2C(=O)COc3ccc(S(=O)(=O)N4CCOCC4)cc32)CC1`, for which the inhibition stood at 4.69%.

Consider `CCN(CC)C(=O)c1c(-c2ccccc2)c(-c2ccccc2)nn(CC)c1=O`, for which the inhibition was found to be 10.1%.

Turning to `COc1ccc(CCC(=O)NC2CC(=O)N(c3ccc(F)cc3)C2)cc1` (stereo unspecified), the inhibition amounted to 27.8%.

For `COc1ccc(-c2nc3sc(CCNC(=O)c4ccc(Br)o4)c(C)n3n2)cc1`, the inhibition is -0.724%.

`CCN(Cc1nc(-c2ccc(OC)c(OC)c2)no1)S(=O)(=O)c1ccc(OC)cc1`: the inhibition is -13.2%.

Regarding `CCn1cc(/C=C(\NC(=O)c2cc(OC)c(OC)c(OC)c2)C(=O)NCCCn2ccnc2)c2ccccc21`, the inhibition is -3.61%.

For `Cc1cc(NC(=O)Cc2ccccc2)cc(-c2nc3ccccc3o2)c1O`, the inhibition is -5.14%.

On to `Cc1c(C(=O)NCCN(C)C)oc2c1-c1nn(Cc3cccc(Cl)c3)cc1CC2`, for which the inhibition is -2.77%.

In the case of `Cc1nc(-c2ccc(F)cc2)sc1CCNC(=O)Cc1ccc(F)cc1`, the inhibition is -5.97%.

On to `CCOC(=O)c1cc2c(=O)n3ccccc3nc2n(C(C)C)c1=NC(=O)C(C)(C)Oc1ccc(Cl)cc1`, for which the inhibition is 6.14%.

As for `CN(C)c1ccc(Nc2ncnc3c2c(-c2ccccc2)cn3-c2cccc(Cl)c2)cc1`, the inhibition came out at 1.44%.

On to `O=C1CN(C(=O)c2ccc(S(=O)(=O)N3CCCC3)cc2)C(c2ccccc2)c2cc(F)ccc2N1` (stereo unspecified), for which the inhibition is -5.17%.

`Cc1ccccc1-c1noc(-c2ccccc2OCC(=O)Nc2cccc([N+](=O)[O-])c2)n1`: the inhibition amounted to 23.3%.
